Measured values published in publication PMC4481407.
These are yes or no findings as the source states them, for the method shown. For some of these results: Binding seen in cells or lysates may run through a third protein. Some binding calls cover weakened binding; strength is not graded here. Tags and fused reporters may be left off the sequences shown.

Amino acid sequences for entries named in this document (tags omitted).
UniProt P05205: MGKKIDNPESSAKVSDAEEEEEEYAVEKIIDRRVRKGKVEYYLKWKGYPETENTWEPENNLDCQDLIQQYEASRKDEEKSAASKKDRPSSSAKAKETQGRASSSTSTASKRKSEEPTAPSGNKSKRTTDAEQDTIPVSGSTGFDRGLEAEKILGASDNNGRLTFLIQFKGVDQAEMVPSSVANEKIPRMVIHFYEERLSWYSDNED

T1: HOAP (yeast two-hybrid fusion) (Drosophila melanogaster) (UniProt Q95RV2)
T1 sequence: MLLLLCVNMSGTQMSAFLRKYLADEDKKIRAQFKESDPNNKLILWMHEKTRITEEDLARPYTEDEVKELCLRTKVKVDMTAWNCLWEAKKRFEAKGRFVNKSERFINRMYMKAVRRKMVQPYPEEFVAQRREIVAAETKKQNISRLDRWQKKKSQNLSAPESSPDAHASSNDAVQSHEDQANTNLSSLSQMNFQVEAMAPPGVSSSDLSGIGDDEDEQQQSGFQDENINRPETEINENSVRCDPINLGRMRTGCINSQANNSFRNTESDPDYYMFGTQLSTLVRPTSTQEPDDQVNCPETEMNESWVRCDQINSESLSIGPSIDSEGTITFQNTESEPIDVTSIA

T2: GST-HOAP ∆N-TERM (Drosophila melanogaster) (UniProt Q95RV2)
T2 sequence: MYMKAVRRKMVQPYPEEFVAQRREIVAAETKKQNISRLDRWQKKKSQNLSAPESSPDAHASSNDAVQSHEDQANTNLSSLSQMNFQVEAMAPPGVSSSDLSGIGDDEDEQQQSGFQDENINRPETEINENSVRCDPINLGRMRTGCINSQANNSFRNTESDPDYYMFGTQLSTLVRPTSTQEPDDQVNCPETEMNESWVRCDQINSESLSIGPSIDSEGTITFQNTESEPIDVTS

T3: GST-HOAP (Drosophila melanogaster) (UniProt Q95RV2)
T3 sequence: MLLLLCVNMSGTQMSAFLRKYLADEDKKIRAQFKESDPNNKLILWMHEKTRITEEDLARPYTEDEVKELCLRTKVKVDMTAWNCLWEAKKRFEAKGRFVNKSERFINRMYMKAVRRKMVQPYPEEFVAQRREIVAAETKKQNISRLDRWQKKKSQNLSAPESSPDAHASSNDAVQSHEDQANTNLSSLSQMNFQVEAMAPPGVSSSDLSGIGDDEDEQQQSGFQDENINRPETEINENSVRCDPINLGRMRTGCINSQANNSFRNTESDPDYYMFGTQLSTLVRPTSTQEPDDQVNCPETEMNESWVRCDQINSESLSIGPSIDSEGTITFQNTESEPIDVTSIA

T4: GST-Moi (Drosophila melanogaster) (UniProt B7Z0L8)
T4 sequence: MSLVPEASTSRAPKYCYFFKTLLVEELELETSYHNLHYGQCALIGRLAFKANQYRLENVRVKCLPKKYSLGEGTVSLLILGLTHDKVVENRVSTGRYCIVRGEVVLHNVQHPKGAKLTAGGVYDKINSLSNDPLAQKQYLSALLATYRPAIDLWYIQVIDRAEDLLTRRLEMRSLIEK

T5: GST-Ver (Drosophila melanogaster) (UniProt Q9VTZ2)
T5 sequence: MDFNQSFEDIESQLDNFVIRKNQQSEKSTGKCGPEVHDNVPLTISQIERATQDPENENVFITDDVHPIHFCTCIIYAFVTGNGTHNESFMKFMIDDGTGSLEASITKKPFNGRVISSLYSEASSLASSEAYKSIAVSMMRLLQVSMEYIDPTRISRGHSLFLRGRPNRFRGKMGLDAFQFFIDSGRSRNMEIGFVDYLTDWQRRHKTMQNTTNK

T6: GST-Peo (Drosophila melanogaster) (UniProt Q7K4V4)
T6 sequence: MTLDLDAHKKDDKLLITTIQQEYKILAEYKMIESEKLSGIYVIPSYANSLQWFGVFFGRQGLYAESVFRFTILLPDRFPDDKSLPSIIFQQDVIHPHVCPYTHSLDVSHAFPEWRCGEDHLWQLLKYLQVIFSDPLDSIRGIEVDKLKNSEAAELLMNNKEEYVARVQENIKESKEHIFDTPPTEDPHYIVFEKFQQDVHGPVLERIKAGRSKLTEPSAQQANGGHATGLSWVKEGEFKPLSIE

T7: GST-Peo 3 (Drosophila melanogaster) (UniProt Q7K4V4)
T7 sequence: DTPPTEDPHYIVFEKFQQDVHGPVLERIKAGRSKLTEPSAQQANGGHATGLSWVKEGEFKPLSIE

T8: GST-Peo 2 (Drosophila melanogaster) (UniProt Q7K4V4)
T8 sequence: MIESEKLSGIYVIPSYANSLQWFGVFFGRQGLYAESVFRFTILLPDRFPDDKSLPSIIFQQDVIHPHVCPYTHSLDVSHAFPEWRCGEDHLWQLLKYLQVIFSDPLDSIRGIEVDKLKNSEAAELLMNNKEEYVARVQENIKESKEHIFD

T9: GST-Peo 1 (Drosophila melanogaster) (UniProt Q7K4V4)
T9 sequence: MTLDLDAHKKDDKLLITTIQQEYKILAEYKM


Experiments:
[1] = target: HP1a (yeast two-hybrid fusion) (Drosophila melanogaster) (UniProt P05205); test: two-hybrid; S. cerevisiae AH109; growth on SD/-His/-Trp/-Leu plates with 20 mM 3-AT; Gal4 BD and AD fusions
[2] = target: T1, HOAP (yeast two-hybrid fusion) (Drosophila melanogaster); test: as above
[3] = target: T2, GST-HOAP ∆N-TERM (Drosophila melanogaster); test: pull-down; GST-HOAP polypeptides of different length on sepharose beads with bacterially expressed 6His-Peo; 20 mM Hepes KOH, 20 mM NaF, 0.8% NP40, 1 h at 4°C; His-Peo detected with anti-Peo antibody; both purified
[4] = target: T3, GST-HOAP (Drosophila melanogaster); test: as above
[5] = target: T4, GST-Moi (Drosophila melanogaster); test: pull-down; 2 μg GST fusion protein on sepharose beads with extracts of human cells (HeLa in methods and legend, 293T in results) expressing Peo-FLAG; 20 mM Hepes KOH, 20 mM NaF, 0.8% NP40, 1 h at 4°C; anti-FLAG blot; only the target purified
[6] = target: T3, GST-HOAP (Drosophila melanogaster); test: as above
[7] = target: T5, GST-Ver (Drosophila melanogaster); test: as above
[8] = target: T6, GST-Peo (Drosophila melanogaster); test: pull-down; 2 μg bacterially expressed GST-Peo or GST-Peo fragment on sepharose beads with Drosophila S2 cell extracts expressing HOAP-FLAG, Ver-FLAG or Moi-HA; 20 mM Hepes KOH, 20 mM NaF, 0.8% NP40, 1 h at 4°C; anti-FLAG or anti-HA blot; only the target purified
[9] = target: T7, GST-Peo 3 (Drosophila melanogaster); test: as above
[10] = target: T8, GST-Peo 2 (Drosophila melanogaster); test: as above
[11] = target: T9, GST-Peo 1 (Drosophila melanogaster); test: as above

| binding [8] | binding [9] | binding [10] | binding [11] | Binder | also measured |
| --- | --- | --- | --- | --- | --- |
|  |  |  |  | Peo (yeast two-hybrid fusion) (protein, UniProt Q7K4V4 1-244) MTLDLDAHKKDDKLLITTIQQEYKILAEYKMIESEKLSGIYVIPSYANSLQWFGVFFGRQGLYAESVFRFTILLPDRFPDDKSLPSIIFQQDVIHPHVCPYTHSLDVSHAFPEWRCGEDHLWQLLKYLQVIFSDPLDSIRGIEVDKLKNSEAAELLMNNKEEYVARVQENIKESKEHIFDTPPTEDPHYIVFEKFQQDVHGPVLERIKAGRSKLTEPSAQQANGGHATGLSWVKEGEFKPLSIE | binding [1]: no binding; binding [2]: binds |
|  |  |  |  | 6His-Peo (protein, UniProt Q7K4V4 1-244) MTLDLDAHKKDDKLLITTIQQEYKILAEYKMIESEKLSGIYVIPSYANSLQWFGVFFGRQGLYAESVFRFTILLPDRFPDDKSLPSIIFQQDVIHPHVCPYTHSLDVSHAFPEWRCGEDHLWQLLKYLQVIFSDPLDSIRGIEVDKLKNSEAAELLMNNKEEYVARVQENIKESKEHIFDTPPTEDPHYIVFEKFQQDVHGPVLERIKAGRSKLTEPSAQQANGGHATGLSWVKEGEFKPLSIE | binding [3]: no binding; binding [4]: binds |
|  |  |  |  | Peo-FLAG (protein, UniProt Q7K4V4 1-244) MTLDLDAHKKDDKLLITTIQQEYKILAEYKMIESEKLSGIYVIPSYANSLQWFGVFFGRQGLYAESVFRFTILLPDRFPDDKSLPSIIFQQDVIHPHVCPYTHSLDVSHAFPEWRCGEDHLWQLLKYLQVIFSDPLDSIRGIEVDKLKNSEAAELLMNNKEEYVARVQENIKESKEHIFDTPPTEDPHYIVFEKFQQDVHGPVLERIKAGRSKLTEPSAQQANGGHATGLSWVKEGEFKPLSIE | binding [5]: binds; binding [6]: binds; binding [7]: binds |
| binds | no binding | binds | binds | Moi-HA (protein, UniProt B7Z0L8 1-178) MSLVPEASTSRAPKYCYFFKTLLVEELELETSYHNLHYGQCALIGRLAFKANQYRLENVRVKCLPKKYSLGEGTVSLLILGLTHDKVVENRVSTGRYCIVRGEVVLHNVQHPKGAKLTAGGVYDKINSLSNDPLAQKQYLSALLATYRPAIDLWYIQVIDRAEDLLTRRLEMRSLIEK |  |
| binds | no binding | binds | binds | Ver-FLAG (protein, UniProt Q9VTZ2 1-214) MDFNQSFEDIESQLDNFVIRKNQQSEKSTGKCGPEVHDNVPLTISQIERATQDPENENVFITDDVHPIHFCTCIIYAFVTGNGTHNESFMKFMIDDGTGSLEASITKKPFNGRVISSLYSEASSLASSEAYKSIAVSMMRLLQVSMEYIDPTRISRGHSLFLRGRPNRFRGKMGLDAFQFFIDSGRSRNMEIGFVDYLTDWQRRHKTMQNTTNK |  |
| binds | no binding | no binding | binds | HOAP-FLAG (protein, UniProt Q95RV2 1-345) MLLLLCVNMSGTQMSAFLRKYLADEDKKIRAQFKESDPNNKLILWMHEKTRITEEDLARPYTEDEVKELCLRTKVKVDMTAWNCLWEAKKRFEAKGRFVNKSERFINRMYMKAVRRKMVQPYPEEFVAQRREIVAAETKKQNISRLDRWQKKKSQNLSAPESSPDAHASSNDAVQSHEDQANTNLSSLSQMNFQVEAMAPPGVSSSDLSGIGDDEDEQQQSGFQDENINRPETEINENSVRCDPINLGRMRTGCINSQANNSFRNTESDPDYYMFGTQLSTLVRPTSTQEPDDQVNCPETEMNESWVRCDQINSESLSIGPSIDSEGTITFQNTESEPIDVTSIA |  |
